First the molecules themselves.
B1: LINE1-mini (parent)
chain: GGCAGAGCUCAACACAGCGUGGCAAAGUGGCUGUGGCUAGACUGCC

Read counts are not given, so values of variants with three or more changes are uncertain.

The variants in the data set derive from B1. Nature of the data set: self-cleavage, relative activity (ratio to wild type); higher = more cleavage; in vitro, sequencing; the parent is a self-cleaving ribozyme.
On to C23G A26C G30C C46A, for which the self-cleavage is 0.05. Take A24U G36U G44A: the self-cleavage is 0.05. As for C23U C31A G36C, the self-cleavage turned out to be 0.01. With C23U G29C G35A A41U, the self-cleavage amounted to 0.17. As for C23G A24G U34A, the self-cleavage was determined as 0.01. As for A24G C31U C46G, the figure is 0.05. On to A24G G27C C31U, for which the self-cleavage was 0.01.

Regarding A24U C31A C42G, the self-cleavage amounted to 0.06. As for A24U G27A A39C G44U, the self-cleavage was 0.03.

On to C23U A25C U32G C46G, for which the self-cleavage is 0.04. For C23G A24G A41G, the self-cleavage stood at 0.08.

As to C23G C37A C46U, the self-cleavage stood at 0.03.

Take A24G U28A G40A: the self-cleavage worked out at 0.15. For C23U C31A G33A U34G, the self-cleavage amounted to 0.01. With A24U G29C C37U U38A the figure was 0.01; with C23G G30C G36U, 0.05; with A24G A25C A41U U43G, 0.04.

Consider C23U G35U U38G, for which the self-cleavage came to 0.02. With C23A G44A C45A, the self-cleavage turned out to be 0.02. On to C23U A25G A26C U38C A39U C42G, for which the self-cleavage is 0.02. C23G A24U A39G: the self-cleavage is 0.04. In the case of A24G G30U U32C, the self-cleavage came to 0.05. In the case of A24U G27C U28C C31U G44U, the self-cleavage was found to be 0.67.

On to C23G A26C G27A U28G C31A, for which the self-cleavage was found to be 0.72. A24U A26U G40C G44A: the self-cleavage amounted to 0.02.

Regarding C23A U28C G40C, the self-cleavage turned out to be 0.05. For the variant A24U A26U G30U, the self-cleavage was found to be 0.52.

Take A24U A26U G36C: the self-cleavage was 0.02. Consider C23U A39U G40U, for which the self-cleavage is 0.32.

Regarding C23U A39U G40C, the self-cleavage was determined as 0.11. Consider C23G G33A G35U C37U, for which the self-cleavage was 0.14.

Consider A24U G36C C42A, for which the self-cleavage stood at 0.01. Take A24U A26U U38G: the self-cleavage stood at 0.01. As for C23U A24G C31A, the figure is 0.25. As to A24U A25C G40C, the self-cleavage was 0.18. For the variant C23G G30U U38A, the self-cleavage came to 0.15.

With C23U A24C U28G G29U G33C, the self-cleavage was 0.03.

Regarding C23G G36A A39C, the self-cleavage turned out to be 0.05. With C23U G35A A39U G44A, the self-cleavage is 0.1.

As to A24G C31A G35U C46G, the self-cleavage is 0.05. Turning to C23U G29C G44U, the self-cleavage was 0.08. As for C23G C37U A41C, the self-cleavage turned out to be 0. On to C23G U32A U34C, for which the self-cleavage amounted to 0.04.

On to A24G G30A C37A C45A, for which the self-cleavage came to 0.1.

For C23A U34G G44A, the self-cleavage stood at 0.15. With C23U G27A G40C, the self-cleavage amounted to 0.09. For the variant C23G A26U G29U U32G, the self-cleavage is 0.53. Consider C23U G30C G35C, for which the self-cleavage stood at 0.14. With C23G G35A G36U the figure was 0.07.

A24U A26U C46A: the self-cleavage worked out at 1.11. With A24U A26G C42G C46U the figure was 0.1; with C23U U28G G30U C45U, 1.29; with C23G A26U C37G U38G, 0.02. Consider C23U G33C G44C, for which the self-cleavage was 0.05. C23G A26C U32C G40U C42A: the self-cleavage was determined as 0.01. On to C23U G27U U34C G35U G40C C42A, for which the self-cleavage turned out to be 0.02. A24C U34G G44A: the self-cleavage amounted to 0.05. On to A24U A25U G40A C45A, for which the self-cleavage was 0.08.

For the variant C23U A26U G30C G44U, the self-cleavage came out at 0.09. Consider C23G C31G C46A, for which the self-cleavage turned out to be 0.29. For the variant C23U G30A U38C, the self-cleavage stood at 2.26. A24U G33U G36U G44A: the self-cleavage was 0.04.

For the variant A24G G33C G35A G36U A41C, the self-cleavage was 0. As for A24G A25G U38A C46A, the self-cleavage was 0.24. C23U A26G C31A: the self-cleavage is 0.14.

A24U A26G A41C: the self-cleavage was found to be 0.05. On to A24C G30U U38G C46G, for which the self-cleavage was determined as 0.01.

Take A24G G36U C46A: the self-cleavage turned out to be 0.05.

C23U A26G G35A: the self-cleavage is 0.2. For C23U G30A G33A U34G A39G C45U, the self-cleavage was 0.12. As for A24G G35C C37A, the figure is 0.18; as for C23G C31U G36C, 0.06; as for C23U G29U G30C G35U, 0.06. For the variant A24G A26C C31A, the self-cleavage came out at 0.31. For A24U G29C C42U C46A, the self-cleavage stood at 0.02. For A24U C31U A39C U43C, the self-cleavage came out at 0.06.

Take A24U A26C G29U: the self-cleavage was 1.63.

Take C23U G33C U43A: the self-cleavage turned out to be 0.02. Turning to C23G U32G G36A A41G, the self-cleavage turned out to be 0.13. For C23U A39G G44U, the self-cleavage worked out at 0.

Regarding C23G G29U C37A U38G, the self-cleavage was 0.01.

For the variant C23A U32C U34G C42U, the self-cleavage is 0.03. With C23A G44C C46G the figure was 0.04; with A24C G36U A39C, 0.01; with C23U C31A U32C C42A C45G, 0.02. With C23G G29A G30C C37G, the self-cleavage worked out at 0.12. For the variant A24C A26C G29U U38A A39U C42G C46G, the self-cleavage is 0.02. Regarding C23U U32C C45A, the self-cleavage is 0.12. As to C23G U38G A39C, the self-cleavage was 0.02.

Regarding C23A U28C C31G C42U, the self-cleavage was found to be 0.04.

Take C23A U28C G30A G44U: the self-cleavage was 0.29. Regarding C23A U43A G44A, the self-cleavage turned out to be 0.09. With C23U G27U G29U G30A G40A, the self-cleavage is 0.1.

In the case of C23U G29U C42A U43A, the self-cleavage came out at 0.12.

On to C23U C42U C46U, for which the self-cleavage is 0.18. In the case of A24C A25U U32C G35A, the self-cleavage is 0.03. As to C23U U34A C46U, the self-cleavage came out at 0.33. In the case of A24C C31U G40C, the self-cleavage came out at 0.02. Consider C23U A24G U38G C45G, for which the self-cleavage is 0. As for C23G G36C G40U, the self-cleavage amounted to 0.16. As for C23U C31G C37A G40A, the figure is 0.04; as for C23U U28G U34G U43A, 0.02. As for C23G G30C U34G, the self-cleavage worked out at 0.05. C23U G33A G35A: the self-cleavage worked out at 0.02. Regarding A24C A26U G30U, the self-cleavage stood at 0.16.

On to A24U G27U G40U, for which the self-cleavage was determined as 0.14.

Take C23G A26U A41G C45A: the self-cleavage was found to be 0.06. On to C23U G30C G33U C45G, for which the self-cleavage was 0.1.

Regarding A24U C31A C46G, the self-cleavage worked out at 0.09.

For A24U A26C C31A, the self-cleavage worked out at 0.22. On to A24C G33U C46A, for which the self-cleavage amounted to 0.02. For C23G G27U C37U, the self-cleavage worked out at 0.01.

As for C23G U28C G29U, the self-cleavage turned out to be 0.38. Take C23U G35C G44A: the self-cleavage is 0.05.

On to C23A G36C G44U, for which the self-cleavage was determined as 0.02. Turning to A24G G40U U43G, the self-cleavage turned out to be 0.37. For the variant A24C G29U G30C, the self-cleavage came out at 0.26.

Take A24U A25U G35A: the self-cleavage was found to be 0.12.

Take A24G U34G A39U: the self-cleavage stood at 0.1. For A24G A25C C31G, the self-cleavage stood at 0.01.

As to C23G A26C G36A A41U U43C, the self-cleavage amounted to 0.03. For the variant C23G G29A C31G G36A C45G, the self-cleavage is 0.03.

For the variant C23U G30U U32G C45G, the self-cleavage is 0.1. As to C23U C31G C46U, the self-cleavage amounted to 0.04.

As for A24C U28A C37A G44C, the self-cleavage came out at 0.

On to A24G A26U G27U G29A G35U, for which the self-cleavage was found to be 0.04. C23U G29C G40A C45U: the self-cleavage was 0.07. On to C23G C31G A41G, for which the self-cleavage came out at 0.03. As for A24C A26C C46G, the self-cleavage worked out at 0.2. As for A24G A25C C31A G36U U38A, the figure is 0.02. As to C23G A24C G29C C46A, the self-cleavage amounted to 0.61. Take C23U G27A G30U A39C G44C: the self-cleavage turned out to be 0.06. As for C23G G30A G33U G44A, the figure is 0.03; as for C23A G40C U43G, 0.07; as for C23U A26C U32G, 0.52. C23G A26C G44U: the self-cleavage is 0.17. As to C23A U32G C37U C46G, the self-cleavage was 0.04. As to C23G A26C A39C, the self-cleavage is 0.05.

A24G G29C G30A C37A A41C: the self-cleavage came to 0.02. With A24G A26C C37A the figure was 0.02. With A24G A25U C46A the figure was 1.54; with C23G G35U U38G, 0.01.

C23U A26U U38A: the self-cleavage was 0.31.

On to C23G C37G C45G, for which the self-cleavage stood at 0.01. Consider C23U U43A C46U, for which the self-cleavage was determined as 0.11. Consider C23G G27A C37A C45G, for which the self-cleavage stood at 0.02. With C23G U38C C46U, the self-cleavage came out at 0.39.

Turning to A24G A39G C46U, the self-cleavage amounted to 0.06. With A24U A39G C42U C46G, the self-cleavage amounted to 0.09.

On to C23G G29U G30A U38A, for which the self-cleavage is 1.64. With C23U G29A G44C, the self-cleavage came out at 0.39. As for C23U G27U G29C G35U C37A, the figure is 0.01; as for A24G A26U U34A, 0.03; as for C23U G33A C37A, 0.05.

Consider C23G G27U C45U, for which the self-cleavage was 0.78. As to C23U A25G U32C, the self-cleavage was 0.1. For C23U A24U G30C C31U G33U, the self-cleavage is 0.01. As for A24G U28C G44C, the figure is 0.33. C23U G36A G44C: the self-cleavage came out at 0.08. Take C23G C37G U43A C45A: the self-cleavage amounted to 0.04. As for C23G U34C C37U, the figure is 0.01; as for A24U A25U G27C, 1.43; as for A24U A25U G27A, 0.87.

As for C23A U34C C37A, the self-cleavage worked out at 0.05.

With C23A U32A U38A, the self-cleavage was determined as 0.15.

On to C23U G29A A41U, for which the self-cleavage is 0.76. As to C23U A26G C31A G40C A41G, the self-cleavage was determined as 0.01.

Source of the values: the RNAGym collection of RNA variant scans (doi:10.7554/elife.90254).
